# Measurements: the supplement of paper PMC12217912
# Some of the results follow. The full chains were built here from the parent and the listed change. Inactive controls read about 0.05.
# B1: TEV protease; numbered along this chain (parent)
# chain: MGESLFKGPRDYNPISSSICHLTNESDGHTTSLYGIGFGPFIITNKHLFRRNNGTLVVQSLHGVFKVKDTTTLQQHLVDGRDMIIIRMPKDFPPFPQKLKFREPQREERICLVTTNFQTKSMSSMVSDTSCTFPSGDGIFWKHWIQTKDGQCGSPLVSTRDGFIVGIHSASNFTNTNNYFTSVPKNFMELLTNQEAQQWVSGWRLNADSVLWGGHKVFMVKPEEPFQPVKEATQL
# Variants of: B1
# Experiment: raw area under fraction-flipped curve 0-4 h after induction (AUC4h, not background-subtracted), DNA-recorder readout of cleavage of the substrate (dimensionless); higher = more cleavage of the substrate by the protease variant
# Conditions: temperature: 34 °C; time window: 0-4 h after rhamnose induction
# Experimental: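 In vivo DNA recorder in E. coli TOP10(DE3) ΔrhaA at 34 °C. Each TEVp single-site mutant (parent TEVp 0) is paired with a single-site variant of the 7-mer TEVs (canonical ENLYFQ|S). The substrate sits between flexible linkers in a Bxb1-sfGFP-TEVs-SsrA fusion, so cleavage stabilises Bxb1 and speeds flipping of a recombination array, read by NGS. The value is the raw area under the fraction-flipped curve over 0-4 h after rhamnose induction (AUC4h), with ≥20 reads per time point. It is not background-subtracted; inactive controls average about 0.047.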
# 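Note: Bxb1 expression induced with 0.2% (w/v) L-rhamnose at OD600 near 0.5, cultures sampled hourly, flipped fraction per protease–substrate barcode pair counted by paired-end Illumina sequencing.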
Variant,area with substrate ENLYFQA,area with substrate ENLYFQC,area with substrate ENLYFQG,area with substrate ENLYFQI,area with substrate ENLYFQN,area with substrate ENLYFQS,area with substrate ENLYFQY,area with substrate ENLYFQE,area with substrate ENLYFQF,area with substrate ENLYFQL,area with substrate ENLYFQM,area with substrate ENLYFQP,area with substrate ENLYFQR,area with substrate ENLYFQT,area with substrate ENLYFQD,area with substrate ENLYFQH,area with substrate ENLYFQV,area with substrate ENLYFQW,area with substrate ENLYFQK
MGESLFKGPRDYNPISSSICHLTNESDGHTTSLYGIGFGPFIITNKHLFRRNNGTLVVQSLHGVFKVKDTTTLQQHLVDGRDMIIIRMPKDFPPFPNKLKFREPQREERICLVTTNFQTKSMSSMVSDTSCTFPSGDGIFWKHWIQTKDGQCGSPLVSTRDGFIVGIHSASNFTNTNNYFTSVPKNFMELLTNQEAQQWVSGWRLNADSVLWGGHKVFMVKPEEPFQPVKEATQL [Q97N],0.139,0.109,0.146,0.0476,0.0338,0.103,0.0862,–,–,–,–,–,–,–,–,–,–,–,–
MGESLFKGPRDYNPISSSICHLTNESDGHTTSLYGIGFGPFIITNKHLFRRNNGTLVVQSLHGVFKVKDTTTLQQHLVDGRDMIIIRMPKDFPPFPQKLKIREPQREERICLVTTNFQTKSMSSMVSDTSCTFPSGDGIFWKHWIQTKDGQCGSPLVSTRDGFIVGIHSASNFTNTNNYFTSVPKNFMELLTNQEAQQWVSGWRLNADSVLWGGHKVFMVKPEEPFQPVKEATQL [F101I],0.0742,–,0.0849,0.0562,0.0026,0.0731,–,0.0598,0.0681,0.0521,0.0719,0.0589,0.052,0.0643,–,–,–,–,–
MGESLFKGPRDYNPISSSICHLTNESDGHTTSLYGIGFGPFIITNKHLFRRNNGTLVVQSLHGVFKVKDTTTLQQHLVDGRDMIIIRMPKDFPPFPQKLKFREPQREERICLVTTNFQTKSMSSMVSDTSCTFPSGDGIFWKHWIQTKDGQCGSPLVSTRDGFIVGIHSASNFTNTNNYFTSVPKNFMELLTNQEAQQWVSGWRLCADSVLWGGHKVFMVKPEEPFQPVKEATQL [N206C],0.0921,–,0.144,0.0561,0.0657,0.0963,0.075,0.0844,0.0776,0.05,–,–,0.0542,0.063,0.072,0.069,0.0618,0.0757,–
MGESLFKGPRDYNPISSSICHLTNESDGHTTSLYGIGFGPFIITNKHLFRRNNGTLVVQSLHGVFKVKDTTTLQQHLVDGRDMIIIRMPKDFPPFPQKLKFREPQREERICLVTTNFQTKSMSSMVSDTSCTFPSGDGIFWKHWIQTKDGQCGSPLVSTRDGFIVGIHSASNFTNTNNYFTSVPKNFMELLTNQEAQQWVSGWRYNADSVLWGGHKVFMVKPEEPFQPVKEATQL [L205Y],0.0963,0.088,–,–,0.0534,0.0809,–,–,–,0.049,0.0691,0.0673,0.0655,0.0388,0.0582,0.061,0.0604,–,0.0504
MGESLFKGPRDYNPISSSICHLTNESDGHTTSLYGIGFGPFIITNKHLFRRNNGTLVVQSLHGVFKVKDTTTLQQHLVDGRDMIIIRMPKDFPPLPQKLKFREPQREERICLVTTNFQTKSMSSMVSDTSCTFPSGDGIFWKHWIQTKDGQCGSPLVSTRDGFIVGIHSASNFTNTNNYFTSVPKNFMELLTNQEAQQWVSGWRLNADSVLWGGHKVFMVKPEEPFQPVKEATQL [F95L],0.038,–,–,0.0564,–,0.0948,–,–,0.069,0.0593,–,–,–,–,–,–,–,0.0794,0.0611
MGESLFKGPRDYNPISSSICHLTNESDGHTTSLYGIGFGPFIITNKHLFRRNNGTLVVQSLHGVFKVKDTTTLQQHLVDGRDMIIIRMPKDFPPFPQKLKFREPQREERICLVTTNFQTKSMSSMVSDTSCTFPSGDGIFWKHWIQTKDGQCGSPLVSTRDGFIVGIHYASNFTNTNNYFTSVPKNFMELLTNQEAQQWVSGWRLNADSVLWGGHKVFMVKPEEPFQPVKEATQL [S169Y],0.0523,–,–,–,–,0.0609,–,–,–,–,0.0523,–,–,–,–,–,–,–,–
MGESLFKGPRDYNPISSSICHLTNESDGHTTSLYGIGFGPFIITNKHLFRRNNGTLVVQSLHGVFKVKDTTTLQQHLVDGRDMIIIRMPKDFPPFPQKLKFREPQREERICLVTTNFQTKSMSSMVSDTSCTFPSGDGIFWKHWIQTKDGQCGSPLVSTRDGFIVGIHSASNFTNTNNYFTSVPKNGMELLTNQEAQQWVSGWRLNADSVLWGGHKVFMVKPEEPFQPVKEATQL [F187G],0.0573,0.0663,0.0601,0.0503,0.0525,0.0665,–,–,–,0.0546,0.0629,0.0637,0.0501,–,0.0579,0.0461,0.0703,0.0554,0.0581
MGESLFKGPRDYNPISSSICHLTNESDGHTTSLYGIGFGPFIITNKHLFRRNNGTLVVQSLHGVFKVKDTTTLQQHLVDGRDMIIIRMPKDFPPFPQKLKFREPQREERICLVTTNFQTKSMSSMVSDKSCTFPSGDGIFWKHWIQTKDGQCGSPLVSTRDGFIVGIHSASNFTNTNNYFTSVPKNFMELLTNQEAQQWVSGWRLNADSVLWGGHKVFMVKPEEPFQPVKEATQL [T129K],0.101,0.109,–,–,0.0698,0.092,–,–,–,0.0586,–,–,0.0406,0.0533,–,–,0.0604,–,0.0417
MGESLFKGPRDYNPISSSICHLTNESDGHTTSLYGIGFGPFIITNKHLFRRNNGTLVVQSLHGVFKVKDTTTLQDHLVDGRDMIIIRMPKDFPPFPQKLKFREPQREERICLVTTNFQTKSMSSMVSDTSCTFPSGDGIFWKHWIQTKDGQCGSPLVSTRDGFIVGIHSASNFTNTNNYFTSVPKNFMELLTNQEAQQWVSGWRLNADSVLWGGHKVFMVKPEEPFQPVKEATQL [Q75D],0.0578,–,0.0708,–,0.058,0.0598,–,0.0507,0.0685,–,0.0524,–,–,–,–,0.0812,0.0481,0.101,–
MGESLFKGPRDYNPISSSICHLTNESDGHTTSLYGIGFGPFIITNKHLFRRNNGTLVVQSLHGVFKVKDTTTLQQHLVDGRDMIIIRMPKDFPVFPQKLKFREPQREERICLVTTNFQTKSMSSMVSDTSCTFPSGDGIFWKHWIQTKDGQCGSPLVSTRDGFIVGIHSASNFTNTNNYFTSVPKNFMELLTNQEAQQWVSGWRLNADSVLWGGHKVFMVKPEEPFQPVKEATQL [P94V],0.088,0.181,–,0.0566,0.0892,0.115,0.0894,–,–,–,–,–,0.0722,0.0743,–,–,–,–,0.0703
